According to a collection of fitness landscapes (doi:10.1126/science.1257360):
The other results are listed elsewhere or left out.

B1: PhoQ; a variant is named by its letters at X, in order, P23837 (parent)
chain: MKKLLRLFFPLSLRVRFLLATAAVVLVLSLAYGMVALIGYSVSFDKTTFRLLRGESNLFYTLAKWENNKLHVELPENIDKQSPTMTLIYDENGQLLWAQRDVPWLMKMIQPDWLKSNGFHEIEADVNDTSLLLSGDHSIQQQLQEVREDDDDAEMTHSVAVNVYPATSRMPKLTIVVVDTIPVELKSSYMVWSWFIYVLSANLLLVIPLLWVAAWWSLRPIEALAKEVRELEEHNRELLNPATTRELTSLVRNLNRLLKSERERYDKYRTTLTDLTHSLKTPLXXLQXXLRSLRSEKMSVSDAEPVMLEQISRISQQIGYYLHRASMRGGTLLSRELHPVAPLLDNLTSALNKVYQRKGVNISLDISPEISFVGEQNDFVEVMGNVLDNACKYCLEFVEISARQTDEHLYIVVEDDGPGIPLSKREVIFDRGQRVDTLRPGQGVGLAVAREITEQYEGKIVAGESMLGGARMEVIFGRQHSAPKDE

Variants of: B1
Test: enrichment ratio after two sorts for PhoP signalling (ratio (wild type AVST 3.29)); higher = more functional
Details: with PhoP (E. coli)

| Variant | enrichment ratio |
| --- | --- |
| IHKD | ≤ 0.25 |
| SIIG | 2.57 |
| HPGQ | ≤ 0.25 |
| EIQG | ≤ 0.25 |
| PAAV | ≤ 0.25 |
| HLVL | ≤ 0.25 |
| NPFM | ≤ 0.25 |
| GENC | 0.253 |
| INIL | ≤ 0.25 |
| WHCH | ≤ 0.25 |
| RTSV | ≤ 0.25 |
| WGFL | ≤ 0.25 |
| EFGN | ≤ 0.25 |
| ESQR | ≤ 0.25 |
| GWNK | ≤ 0.25 |
| FNVQ | ≤ 0.25 |
| KLQR | ≤ 0.25 |
| GSWY | ≤ 0.25 |
| PIMY | ≤ 0.25 |
| LYWM | ≤ 0.25 |
| LTLS | ≤ 0.25 |
| MERG | ≤ 0.25 |
| YTIG | 1.45 |
| WLRN | ≤ 0.25 |
| WYRK | ≤ 0.25 |

| Variant | enrichment ratio |
| --- | --- |
| SDPK | ≤ 0.25 |
| QKHI | ≤ 0.25 |
| MEPR | ≤ 0.25 |
| QVDN | 11.3 |
| AGDM | ≤ 0.25 |
| KDMF | ≤ 0.25 |
| MKVG | ≤ 0.25 |
| PQMN | ≤ 0.25 |
| MMDH | ≤ 0.25 |
| PENE | ≤ 0.25 |
| HYIG | ≤ 0.25 |
| QYLA | ≤ 0.25 |
| KTFS | ≤ 0.25 |
| VGGA | ≤ 0.25 |
| KHRK | ≤ 0.25 |
| YAFR | ≤ 0.25 |
| IPAM | ≤ 0.25 |
| TPCI | ≤ 0.25 |
| MRHE | ≤ 0.25 |
| VDKG | ≤ 0.25 |
| NILH | ≤ 0.25 |
| ASLF | 12.2 |
| KKWS | ≤ 0.25 |
| PWTF | ≤ 0.25 |
| GKNY | ≤ 0.25 |

| Variant | enrichment ratio |
| --- | --- |
| CIAF | ≤ 0.25 |
| AKNA | ≤ 0.25 |
| YMTK | ≤ 0.25 |
| VGWK | ≤ 0.25 |
| WFEW | ≤ 0.25 |
| HNKT | ≤ 0.25 |
| PDEN | ≤ 0.25 |
| VYDP | ≤ 0.25 |
| EATA | ≤ 0.25 |
| DNQL | 1.14 |
| TQKY | ≤ 0.25 |
| LENA | ≤ 0.25 |
| NNAD | ≤ 0.25 |
| YEML | ≤ 0.25 |
| LMVH | ≤ 0.25 |
| IMIH | ≤ 0.25 |
| IDAW | ≤ 0.25 |
| WKVF | ≤ 0.25 |
| SMCS | 10.4 |
| SWIE | ≤ 0.25 |
| QITF | ≤ 0.25 |
| FIPN | ≤ 0.25 |
| HFDR | ≤ 0.25 |
| GKVT | ≤ 0.25 |
| LHED | ≤ 0.25 |

| Variant | enrichment ratio |
| --- | --- |
| LWYQ | ≤ 0.25 |
| WKPI | ≤ 0.25 |
| LKVY | ≤ 0.25 |
| ENAA | ≤ 0.25 |
| HAIW | ≤ 0.25 |
| NYVW | ≤ 0.25 |
| QRQN | ≤ 0.25 |
| QSFM | 0.651 |
| WFCY | ≤ 0.25 |
| NSHF | ≤ 0.25 |
| LRPD | ≤ 0.25 |
| TYEW | ≤ 0.25 |
| VYQQ | ≤ 0.25 |
| RHHD | ≤ 0.25 |
| PWRM | ≤ 0.25 |
| TVIG | ≤ 0.25 |
| MLMI | 0.953 |
| VTDH | ≤ 0.25 |
| AEGV | 17.5 |
| SFTR | ≤ 0.25 |
| DHTT | ≤ 0.25 |
| ILQF | ≤ 0.25 |
| LSIS | ≤ 0.25 |
| NFGY | ≤ 0.25 |
| IAML | 4.62 |

| Variant | enrichment ratio |
| --- | --- |
| VPNQ | ≤ 0.25 |
| IPAK | ≤ 0.25 |
| VNYY | ≤ 0.25 |
| YNTI | ≤ 0.25 |
| LHDG | ≤ 0.25 |
| NGPG | ≤ 0.25 |
| IAFR | ≤ 0.25 |
| TKAQ | 1.86 |
| IANY | ≤ 0.25 |
| SKFH | ≤ 0.25 |
| VGVK | ≤ 0.25 |
| AQCE | ≤ 0.25 |
| ADAN | ≤ 0.25 |
| GPWW | ≤ 0.25 |
| TVNW | ≤ 0.25 |
| RFPM | ≤ 0.25 |
| DEHR | ≤ 0.25 |
| VTPV | ≤ 0.25 |
| PEQV | ≤ 0.25 |
| DVKW | ≤ 0.25 |
| IFIN | ≤ 0.25 |
| WAKY | ≤ 0.25 |
| GFKT | ≤ 0.25 |
| SCGS | 7.34 |
| ESDW | ≤ 0.25 |

| Variant | enrichment ratio |
| --- | --- |
| ILHW | ≤ 0.25 |
| WKFY | ≤ 0.25 |
| TLSH | 7.97 |
| FLRN | ≤ 0.25 |
| TPWI | ≤ 0.25 |
| LWFQ | ≤ 0.25 |
| ILAT | 0.361 |
| IDYQ | ≤ 0.25 |
| KCPI | ≤ 0.25 |
| NSLL | 3.55 |
| YCKN | ≤ 0.25 |
| WSWY | ≤ 0.25 |
| SWVY | ≤ 0.25 |
| EYPG | ≤ 0.25 |
| PQLD | ≤ 0.25 |
| VKAG | ≤ 0.25 |
| WWRV | ≤ 0.25 |
| VKAV | ≤ 0.25 |
| TFTR | ≤ 0.25 |
| GHPE | ≤ 0.25 |
| HNAN | ≤ 0.25 |
| QVTM | ≤ 0.25 |
| GWLP | ≤ 0.25 |
| IYKA | ≤ 0.25 |
| PVWG | ≤ 0.25 |

| Variant | enrichment ratio |
| --- | --- |
| RLHL | ≤ 0.25 |
| LVVW | ≤ 0.25 |
| PKMS | ≤ 0.25 |
| SVEH | ≤ 0.25 |
| ATIM | 19.5 |
| MPWQ | ≤ 0.25 |
| GTHV | ≤ 0.25 |
| QQPM | ≤ 0.25 |
| PEAY | ≤ 0.25 |
| TMFH | ≤ 0.25 |
| RDSL | ≤ 0.25 |
| LPCW | ≤ 0.25 |
| QGYW | ≤ 0.25 |
| HFWH | ≤ 0.25 |
| QEFF | ≤ 0.25 |
| TEPT | ≤ 0.25 |
| QHED | ≤ 0.25 |
| ARVQ | ≤ 0.25 |
| GPWG | ≤ 0.25 |
| VRVY | ≤ 0.25 |
| VREQ | ≤ 0.25 |
| VRYC | ≤ 0.25 |
| FMRT | ≤ 0.25 |
| DMWT | ≤ 0.25 |
| GLWM | ≤ 0.25 |

| Variant | enrichment ratio |
| --- | --- |
| PVGL | ≤ 0.25 |
| SAHS | ≤ 0.25 |
| FHDP | ≤ 0.25 |
| ANRF | ≤ 0.25 |
| HRVW | ≤ 0.25 |
| SDGW | ≤ 0.25 |
| MVSN | ≤ 0.25 |
| GFFQ | ≤ 0.25 |
| LCLK | ≤ 0.25 |
| RFQV | ≤ 0.25 |
| LDYV | ≤ 0.25 |
| VGWP | ≤ 0.25 |
| ENKL | ≤ 0.25 |
| EGEE | ≤ 0.25 |
| GYYI | ≤ 0.25 |
| VDAP | ≤ 0.25 |
| MKRW | ≤ 0.25 |
| DMAI | ≤ 0.25 |
| FPFN | ≤ 0.25 |
| KKWV | ≤ 0.25 |
